This note sets out measurements from the supplement of paper PMC10338343.

± gives the standard deviation. The list shows a part of the results, in another mix than the full data.

This assay relates to MIWI (PIWIL1) piRISC loaded with piRNA #1 (30 nt). The assay can be described thus: pre-steady-state target cleavage rate (min^-1); MIWI and MILI are mouse PIWI proteins and EfPiwi is from a freshwater sponge; tags in brackets are library labels; higher = faster piRNA-guided slicing of the target. Particulars: guide: piRNA #1 5'p-UGAGGUAGUAGGUUGUAUAGUAUCCAGAGG; auxiliary factor: 500 nM mouse GTSF1. An outline of the steps: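 Using HEPES–potassium acetate buffer at 33 °C, 1 nM active affinity-purified piRISC with a single synthetic guide was mixed with 0.1 nM transcribed, DNA-blocked target RNA library for 0–8 or 0–960 min, with or without 500 nM GTSF1 partner protein. Uncleaved targets were sequenced and normalised to depth and to weakly complementary targets, and three trials were pooled with k3 capped at 0.0001 min^-1. A burst-and-steady-state fit gave the pre-steady-state cleavage rate.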
As to GGUCUGGAUACUAUACAACCUACUACCAGA, the “pre-steady-state target cleavage rate” value was determined as 0.084 ± 0.017.
On to GGACUGGAUUGAAUACAACCUACUACCUCA, for which the “pre-steady-state target cleavage rate” value came to 0.0364 ± 0.0079.
As for GGACUGGAUACUAUACAACUACUACCUCA, the figure is 0.541 ± 0.05; as for GGACUGGAUACUAUUCAAGCUACUACCUCA, 1.01 ± 0.066.
Then CCUCUGGAUACUAUACAACCUAGUACCACA, with 0.0224 ± 0.01; and GGACUGGAUACUAAACAACCUACAACCUCA, with 0.345 ± 0.039; and GGAGACCUAACUAAACAACCUAGUACCUCA, with 0.0545 ± 0.017.
Then GCUCUGGAUACUAUACAAGCUACUACGUCA, with 0.699 ± 0.035; and GGUCAGGAUACUAUAGAACCUACUACCUCA, with 0.492 ± 0.051.
Regarding GGACUGGAUACUAUACAACCUAGAUCCUCA, the “pre-steady-state target cleavage rate” value stood at 0.00693 ± 0.0025.
As for GCUCUGGAUACUAUACUACCUACUACCACA, the figure is 1.66 ± 0.15; as for CCUCUGGAUACUAUACAACCUAUCUACCUCA, 0.348 ± 0.028; as for GGAGAGGAUUCUAUACAACCUACUACGUCA, 0.476 ± 0.046.
As for GGAGACCUUAGUAUACAACCUUCUACCUCA, the figure is 0.119 ± 0.018.
As for GCUCUGGAAUGUAUACAACCUACUACCUCA, the figure is 0.727 ± 0.045.
As for GGAGACCUAACUAUACAACCUACUACCCUCA, the “pre-steady-state target cleavage rate” value is 0.732 ± 0.064.
On to GGACUGGAAACUAUACAUCCUACUACCUCA, for which the “pre-steady-state target cleavage rate” value stood at 0.968 ± 0.088.
Regarding GCUCUGGAUACUAUACUACCUACUAGCUCA, the “pre-steady-state target cleavage rate” value was 1.09 ± 0.11.
Consider CCUCUGGAUACUAAACAACCUACUACCUGA, for which the “pre-steady-state target cleavage rate” value worked out at 0.701 ± 0.11.
Then GGACUGGAUACUAUACAACCUAACUACCUCA, with 0.0167 ± 0.0032.
Then GGAGACGAUACUAUACCACCUACUACCUCA, with 1.29 ± 0.08; and GGAGACGAUACUAUACAAGCAACUACCUCA, with 0.0416 ± 0.0076.
Then GGAGUGGAUACUAUACAACCUACAUACCUCA, with 0.836 ± 0.065.
GGACUGGAAACUAUACAAGCUACUACCUCA: the “pre-steady-state target cleavage rate” value amounted to 0.909 ± 0.071.
